Assays:
[1] = system: Cc1ccc(OCCNc2nc(Nc3cc(C)[nH]n3)cc(C)c2C#N)cn1; conditions: Homo sapiens
[2] = system: Cc1ccc(OCCNc2nc(Nc3cc(C)[nH]n3)cc(C)c2C#N)cn1; conditions: Homo sapiens; remark: listed apart in the source

| Substance | Km [1] [µM] | Km [2] [µM] |
| --- | --- | --- |
| Fibroblast growth factor receptor 1 (Homo sapiens) (sequence not shown) | 200 | – |
| Vascular endothelial growth factor receptor 2 (Homo sapiens) (sequence not shown) | – | 90 |
